Assay results: PubChem BioAssay AID485344 (National Center for Advancing Translational Sciences (NCATS), 2010)
The campaign covered roughly 340,000 compounds. About 6,900 (2%) were called active. Rule as the data show it: active = inhibition above about 30%; inactive = below that, where a call was filed. The entries are a selection whose mix differs from that of the whole data set. Where no call is shown, the source filed none.

target: D(2) dopamine receptor (Homo sapiens) (UniProt P14416); test: HTS Assay for Allosteric Antagonists of the Human D2 Dopamine Receptor: Primary Screen for Antagonists; conditions: HEK293 TREx D2 cells, calcium flux, dopamine EC80; at 10 µM; stronger effect = higher value; also: 0% is about no effect
Sequence of UniProt P14416 (P14416 whole entry, looked up): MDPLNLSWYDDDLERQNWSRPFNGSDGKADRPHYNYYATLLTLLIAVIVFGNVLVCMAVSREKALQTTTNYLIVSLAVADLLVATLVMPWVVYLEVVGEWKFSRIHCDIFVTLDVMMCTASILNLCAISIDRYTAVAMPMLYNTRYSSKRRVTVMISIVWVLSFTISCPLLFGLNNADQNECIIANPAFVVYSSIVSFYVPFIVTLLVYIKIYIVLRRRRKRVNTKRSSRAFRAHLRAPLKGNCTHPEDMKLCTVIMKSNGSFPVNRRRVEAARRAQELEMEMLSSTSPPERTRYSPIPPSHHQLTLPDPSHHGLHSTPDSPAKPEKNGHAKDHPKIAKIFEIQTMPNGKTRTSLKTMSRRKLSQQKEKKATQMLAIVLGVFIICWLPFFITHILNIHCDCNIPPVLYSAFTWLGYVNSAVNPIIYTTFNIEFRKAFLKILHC
In short: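 Tetracycline-induced HEK293 T-REx cells expressing D2 force-coupled to calcium signalling were dye-loaded, exposed to compound for 180 s, then challenged with an EC80 of dopamine; calcium flux was followed kinetically for a further 180 s.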

Structure (SMILES)	inhibition
COc1ccc(-c2ccc3c(N)c(C(=O)NCc4ccc(C)cc4)sc3n2)cc1	11.5%
Cc1ccc2c(c1)N(C(=O)N1CCC(C(=O)NCCc3ccccc3)CC1)CC(C)O2 (configuration not stated)	7.26%
CC(C)(C)OC(=O)N1CCC(c2c(C(=O)NCCN3CCOCC3)cnn2-c2ccc(F)cc2)CC1	5.09%
Cc1ccc2c(=O)cc(C(=O)Nc3sc4c(c3C(=O)NCC3CCCO3)CCCC4)oc2c1C (configuration not stated)	-0.143%
CCCOc1ccc(C2c3c(oc4ccccc4c3=O)C(=O)N2CCCN2CCOCC2)cc1 (configuration not stated)	active: 36%
O=C(c1cccc(Cl)c1)N1c2ncnn2C2(CCCCC2)[C@@H]2CCCC[C@@H]21	5.99%
CC1CN(CCOCCSc2ccc(Cl)cc2)CC(C)O1 (configuration not stated)	active: 50.2%
CCc1c(C)sc2nc(C(C)C)nc(SCC(=O)N3CCc4ccccc4C3)c12	active: 43.7%
Cc1ccc(CNC(=O)c2cc3ccc4cccnc4c3[nH]2)cc1	10.7%
Cc1ccc(NC(=O)Cn2cnc3c2c(=O)n(C)c(=O)n3C)cc1C	-19.4%
CCN(C(=O)Cn1c(=O)n(Cc2ccccc2)c(=O)c2c1c1cc(OC)ccc1n2C)c1ccccc1	0.526%
Cc1ccccc1CNC(=O)c1ccc2nc(C(C)C)oc2c1	8.04%
COc1cc(Cl)c(C)cc1NC(c1ccccc1)c1nnc(-c2ccccc2Cl)o1 (configuration not stated)	9.32%
COc1ccc(-c2noc(-c3ccc(NC4CCCC4)c([N+](=O)[O-])c3)n2)cc1OC	10.9%
CCC(C)n1c(=N)c(C(=O)NC2CCCCC2)cc2c(=O)n3ccccc3nc21 (configuration not stated)	-15.1%
COc1ccc(C2=Nc3ccc(OC(F)(F)F)cc3NC(c3cccnc3)=N2)cc1	-14.5%
COc1ccc(CN2CCCC(CO)(Cc3ccc(F)cc3F)C2)cc1 (configuration not stated)	active: 42.9%
Cc1ccc(C)c(N2CCN(S(=O)(=O)c3cn(C)c(C)n3)CC2)c1	-18.5%
COc1cc(NC(=O)CSc2nc(-c3ccc(C(C)C)cc3)no2)cc(OC)c1	-16.1%
COc1ccc(NC(=O)CSc2cn(CCNC(=O)c3c(F)cccc3F)c3ccccc23)cc1	-11.7%
Cc1ccc(NC(=O)CSc2nc3ccc(NC(=O)CCc4ccccc4)cc3s2)cc1	6.05%
CCN1CCN(Cc2c(O)ccc3c(=O)c(Oc4ccccc4C(C)C)c(C(F)(F)F)oc23)CC1	23.4%
O=C(CN1CCN(c2ccccc2)CC1)Nc1ccc(-n2cnnn2)cc1	active: 50.8%

Structure (SMILES)	inhibition
CCCN1CCN(CCCNC(=O)Cn2nc(C)n3c(cc4c(OC)cccc43)c2=O)CC1	7.33%
CCCn1cc(S(=O)(=O)c2cc(C)ccc2C)c(=O)c2cc(F)c(N3CCN(CC)CC3)cc21	-27.2%
CCOC(=O)c1c(S(=O)(=O)NCC(=O)NCc2ccccc2Cl)c(C)n(C)c1C	0.946%
Cc1cccc(NC(=O)C2CCN(S(=O)(=O)c3ccc4c(c3)CCCN4C(=O)C3CCC3)CC2)c1	-16.6%
COCCCn1c(=O)c2sccc2n2c(CCCC(=O)NC3CCC(C)CC3)nnc12 (configuration not stated)	4.29%
CCc1cc2c(SCC(=O)c3cccs3)ncnc2s1	active: 33.5%
Cc1cccc(C)c1-n1ncc(C(=O)N2CCN(c3ncccn3)CC2)c1C1CCN(C(=O)OC(C)(C)C)CC1	-1.42%
O=[N+]([O-])c1cccc(-c2ccc(C(=S)N3CCOCC3)o2)c1	active: 61.5%
COc1ccc(CNC(=O)C2CCN(S(=O)(=O)c3ccc4c(c3)CCCN4C(C)=O)CC2)cc1	7.35%
COCc1cc(C)nc2sc3c(=O)n(-c4ccccc4C(F)(F)F)nnc3c12	1.3%
CCc1ccccc1NC(=O)c1sc(-n2nc(C)c(Cc3ccccc3)c2C)nc1C	1.8%
Oc1ccc2ccccc2c1C=Nc1ccccc1-c1nc2ccccc2[nH]1	active: 41.4%
Cc1ccc(C)c(CSc2nnc3[nH]c(=O)cc(-c4ccccc4)n23)c1	9.28%
O=C1C2CCCCN2C(=O)N1CCCCN1CCN(c2ccccc2Oc2ccccc2)CC1 (configuration not stated)	active: 84.1%
CCCCCOC(=O)CSc1ncnc2sc3c(c12)CCC(C)C3 (configuration not stated)	9.3%
CCc1ccc(NC(=O)CC2C(=O)N(c3cccc(OC)c3)C(=O)N2C2CCCC2)cc1 (configuration not stated)	-3.55%
Cc1ccc2c(c1)-c1ncc(C(=O)c3ccccc3O)cc1CO2	10.1%
Cc1cc(C)cc(NC(=O)CSc2nc(-c3ccccc3)c3cc(F)ccc3n2)c1	-8.21%
Cc1ccc(C(=O)NC2=NC(c3ccc(C)cc3)CC(=O)N2)cc1 (configuration not stated)	-10.6%
COc1ccc(-c2nc(SCC(=O)Nc3ccc4c(c3)OCCO4)c(-c3ccc(C)cc3)[nH]2)cc1OC	23%
CC(C)NC(=O)c1nn(-c2ccccc2F)nc1CO	-1.69%
COc1ccc(NC(=O)CSc2ccc3nc(-c4ccccc4)cn3n2)cc1OC	9.6%
Cc1ccccc1Nc1c(-c2ccc(N3CCOCC3)cc2)nc2ccccn12	16.7%

Structure (SMILES)	inhibition
Cc1ccc(CNC(=O)CN2C(=O)COc3ccc(S(=O)(=O)Nc4ccccc4)cc32)cc1	-3.83%
CC(C)(C)OC(=O)N1CCC(c2nnc(SCc3cccc(Cl)c3)o2)CC1	5.91%
Cc1ccc2nc3sc(C(=O)NCCCN(C)c4ccccc4)cc3cc2c1	7.23%
COc1ccccc1CNC(=O)CCC1N=C2c3ccccc3N=C(SCc3ccc(C)cc3C)N2C1=O (configuration not stated)	-2.28%
COc1ccc(NC(=O)CN(c2cc(C)cc(C)c2)S(=O)(=O)c2c(C)noc2C)cc1Cl	-1.87%
Fc1cccc(-n2ncc3c2ncn2nc(Cc4ccccc4)nc32)c1	7.81%
O=C(Nc1ccc(Oc2ccccc2)cc1)C1CCN(S(=O)(=O)c2ccc(Cl)cc2)CC1	0.651%
CCOc1ccc(CCNC(=O)c2ccc3c(c2)c(C)c(C)n3Cc2ccccc2)cc1OCC	3.29%
Cc1ccc(S(=O)(=O)N2CCOCC2)cc1NC(=O)CNCc1cccnc1	active: 59.7%
CC(=O)N1CCN(C(=O)c2ccc(Cl)c(S(=O)(=O)N3CCCCCC3)c2)CC1	active: 31.9%
COc1ccccc1NC(=O)CCCc1nnc2n(C)c(=O)c3sccc3n12	-11.3%
CCOC(=O)c1cc(S(=O)(=O)NCc2ccc(C)cc2)[nH]n1	-5.92%
COc1ccc(CCN2C(=O)c3[nH]nc(-c4ccccc4O)c3C2c2ccc(OC)cc2)cc1 (configuration not stated)	3.74%
O=S(=O)(c1ccc(Cl)cc1)c1nc(-c2ccco2)oc1SCc1ccc(F)cc1	0.694%
CCOc1ccc(NC(=O)CN(C)Cc2cc(=O)n3c(-c4ccccc4)csc3n2)cc1OCC	active: 40.6%
Cc1ccc(N=Cc2sc(O)c3ccccc23)c(C)c1	active: 58.1%
Cc1ccc2c(CC(=O)Nc3c(C(=O)c4ccc(C)c(F)c4)oc4ccccc34)coc2c1	13.3%
CCOc1ccc(NC(=O)c2cnc3ccccn3c2=O)cc1	3.1%
COc1cc(C2CC(=O)Nc3c2c(C)nn3-c2nncc(-c3ccc(C)cc3)n2)cc(OC)c1OC (configuration not stated)	-11.7%
CC(=O)c1ccc(NC(=O)c2cnn(-c3cccc(F)c3)c2-n2cccc2)cc1	-3.39%
COc1ccc(S(=O)(=O)c2c(O)c3ccc(C(=O)NCc4ccc(F)cc4)cc3[nH]c2=O)cc1	-4.47%
Cc1ccc(CNC(=O)c2cc(C)nc3c2c(C)nn3-c2ccc(C)cc2)cc1	2.55%
CSc1ccc(CCNC(=O)CCn2c(=O)c3cccn3c3ccc(F)cc32)cc1	-6.08%

Structure (SMILES)	inhibition
CCOC(=O)c1c(NC(=O)c2cc3ccccc3c(=O)o2)sc2c1CCC(C)C2 (configuration not stated)	-3.11%
Cc1ccc(SCC(=O)Nc2ccc3oc(-c4ccccc4C)nc3c2)cc1	10.9%
COc1ccc(-n2c(=O)c3ccccc3n(CC(=O)Nc3ccccc3OC)c2=O)cc1	0.82%
COc1cc(OC)cc(C(=O)Nc2cc3c(cc2N2CCCC2)n(C)c(=O)c(=O)n3C)c1	-3.98%
Cc1ccc(S(=O)(=O)n2nc(-c3ccccc3)nc2NCc2ccc(Cl)cc2)cc1	8.7%
Cc1ccc([N+](=O)[O-])c(OCCN2CCC(Cc3ccccc3)CC2)c1	active: 68.3%
O=C(CSc1nc2c([nH]c3ccccc32)c(=O)n1-c1ccccc1)N1CCc2ccccc21	-25.1%
O=C1CC(c2nc(-c3ccc(Cl)cc3)no2)CN1c1ccc2c(c1)OCCO2 (configuration not stated)	23.8%
COc1ccc(C2C(=O)N(C3CCCCCC3)CC(=O)N2Cc2ccc(C)cc2)cc1 (configuration not stated)	-17.7%
CCc1ccc(NC(=O)[C@H](Cc2ccccc2)N2Cc3ccccc3C2=O)cc1	4.33%
CCOc1ccc(S(=O)(=O)c2c(C(=O)c3ccc(CC)cc3)cnc3ccc(C)cc23)cc1	5%
CN(C)CCNC(=O)C1CCN(Cc2cc3ccccc3n2Cc2ccccc2)CC1	-17.3%
COc1cc(NC(=O)CCc2c(C)nn(-c3ccc4nnc(C)n4n3)c2C)cc(OC)c1OC	7.1%
CC(C)C[C@H]1C(=O)N2CCC[C@H]2[C@]2(O)O[C@](NC(=O)[C@@H]3C=C4c5cccc6[nH]c(Br)c(c56)CC4N(C)C3)(C(C)C)C(=O)N12 (some centres not stated)	active: 94.1%
CCCN(CCC)CCCNC(=O)c1cc2c(-c3ccc(OC)c(OC)c3)nn(C)c2s1	13.2%
COc1ccccc1C(=O)NCC(c1cccnc1)N1CCc2ccccc2C1 (configuration not stated)	-4.6%
CCOC(=O)c1ccc(NC(=O)CSc2ccc3ccccc3n2)cc1	-9.13%
Cc1ccccc1-c1ccc(/C=C2/SC(N3CCOCC3)=NC2=O)o1	active: 82.6%
Cc1cccc(N2CCN(C(=O)CN3C(=O)CSc4c3c(C)nn4-c3ccccc3)CC2)c1C	12%
CCCOC(=O)c1c(NC(=O)C(C)Sc2nc(-c3ccccc3)cc(C(F)(F)F)n2)sc(C(=O)N(C)C)c1C (configuration not stated)	-5.02%
O=C1C(c2ccc(F)cc2)N(CCc2ccc(Cl)cc2)C(=O)CN1C1CCCCCC1 (configuration not stated)	18.5%
COc1cc(NC(=O)CCC(=O)Nc2ccc3nc(N4CCOCC4)cc(C)c3c2)cc(OC)c1OC	active: 30.9%
O=C(NCc1cccc(Br)c1)c1cnn(-c2ccc(F)cc2)c1-n1cccc1	1.53%
